53 compounds from ChEMBL document CHEMBL4888484, “Replenishing the malaria drug discovery pipeline: Screening and hit evaluation of the MMV Hit Generation Library 1 (HGL1) against asexual blood stage Plasmodium falciparum ,using a nano luciferase reporter read-out” (2022) can be followed below.

Molecules are shown by their SMILES. About 540 (0.36%) of roughly 150,000 compounds showed an effect of 50% or more. The list shows a part of the results.

This assay concerns Plasmodium falciparum. The assay is described as follows: Primary screen in NF54 nanoGlo assay, in single point, at 2uM, 72h; a lower Z score goes with more inhibition. In kind it is functional, Erythrocyte. Conditions: timepoint 72 hour.
What is called % Inhibition is the change of the read-out against control, counted positive when it falls. For `Cc1c(CN2CCC[C@H](O)CC2)[nH]c2ccc(Cl)cc12`, the “% Inhibition” value was -12% and the Z score came to 2.19.

With `Cc1cc(C(=O)OCC(=O)N2CCCCC2C)c2c(c1)C(C)CCN2` (stereo unspecified), the “% Inhibition” value turned out to be 4% and the Z score is recorded as -0.62.

As for `COc1cc(C2C(C(=O)Nc3nc4ccccc4s3)CCC(=O)N2c2ccc3c(c2)OCO3)cc(OC)c1OC` (stereo unspecified), the “% Inhibition” value is -3% and the Z score was found to be 0.47.

On to `CC(C)(C)OC(=O)N1CC(C(=O)Nc2ccc(Br)c(O)c2)C1`, for which the “% Inhibition” value is listed as -11% and the Z score is on record as 1.47.

With `CCCN(CC(=O)OC(C)(C)C)C(=O)c1ccc(C(=O)NC)nc1`, the “% Inhibition” value is given as 7% and the Z score is on record as -0.91.

For `Cc1cc(N)n(CC(=O)N[C@H]2CC(=O)N(CC(C)(C)C)C2)n1`, the “% Inhibition” value is -9% and the Z score is recorded as 1.17.

Regarding `CNC(=O)C[C@H]1CCN(C(=O)CCC2CCCC2)C1`, the “% Inhibition” value is -9% and the Z score stood at 1.64.

Turning to `O=C(c1csc(-c2ccc(N3CCOCC3)nc2)n1)N1CCCC1`, the “% Inhibition” value is recorded as -11% and the Z score amounted to 1.22.

As to `COc1ccc(-n2nc(Cc3ccccc3)n(CC(=O)NCC(N)=O)c2=O)cc1`, the “% Inhibition” value came out at 2% and the Z score was -0.32.

Turning to `c1ccc(-c2ncn(Cc3csc(C4CCCCC4)n3)n2)nc1`, the “% Inhibition” value was -22% and the Z score worked out at 4.4.

On to `O=C(COCC(=O)N[C@H]1CCCc2occc21)NCc1cccnc1`, for which the “% Inhibition” value was 13% and the Z score is on record as -1.88.

Take `CCOCCN1CCN(c2nnc(C)c(C)c2C#N)C[C@@H]1CC`: the “% Inhibition” value is on record as -5% and the Z score is recorded as 0.44.

Turning to `Cc1cccc([C@@H](NC(=O)C(C)(C)N2CCCC2)C2CC2)n1`, the “% Inhibition” value is -11% and the Z score came out at 1.41.

Turning to `CC(C)Oc1ccc(C(=O)NCCN(C)C)cc1`, the “% Inhibition” value is 4% and the Z score is -0.54.

On to `COCC[C@H]1CCCCN(Cc2cn(C(C)C)nc2C)C1`, for which the “% Inhibition” value worked out at 6% and the Z score is reported as -0.63.

For the compound `COc1ccc(C(=O)N(CC(=O)N2CCN(c3ccc(-c4cccc(OC)c4)nn3)CC2)CC2CC2)cc1`, the “% Inhibition” value is recorded as -16% and the Z score was determined as 1.75.

Turning to `O=C(c1ccc(C(F)(F)F)s1)N1C[C@@H]2C[C@H](NS(=O)(=O)c3ccccc3)[C@H]1C2`, the “% Inhibition” value was -14% and the Z score worked out at 2.31.

Turning to `Fc1ccccc1CN[C@H]1CCCc2cn(CC(F)(F)F)nc21`, the “% Inhibition” value is -15% and the Z score is on record as 1.65.

In the case of `CC(Oc1cccnc1)C(=O)N1CCOC(CF)C1` (stereo unspecified), the “% Inhibition” value is on record as -11% and the Z score was 1.72.

Regarding `CN(Cc1ccccc1)C(=O)[C@@H]1CN(S(C)(=O)=O)C[C@H]1c1ccncc1`, the “% Inhibition” value is given as -9% and the Z score is on record as 1.08.

On to `Cc1cc(C)cc(NC(=O)Cn2c(N3CCc4ccccc4C3)nc(C)cc2=O)c1`, for which the “% Inhibition” value was -8% and the Z score is reported as 1.34.

Take `Cc1cc(C)n(C(=O)C2CC2c2ccccc2)n1` (stereo unspecified): the “% Inhibition” value is given as -14% and the Z score amounted to 2.61.

On to `Nc1ncc(Cl)cc1S(=O)(=O)N1CCN(Cc2cccs2)CC1`, for which the “% Inhibition” value is reported as -11% and the Z score amounted to 0.91.

As for `Cc1nc(CC(=O)NCc2c(C)nn(C)c2C)c(C)s1`, the “% Inhibition” value is -7% and the Z score was 1.07.

`CN(C)C(=O)[C@H]1N(C)CCCC12CCN(C(=O)COc1ccccc1)CC2`: the “% Inhibition” value was -2% and the Z score is listed as 0.3.

In the case of `C=CCOc1ccccc1CN(CC)Cc1cccn1-c1ncccn1`, the “% Inhibition” value worked out at 2% and the Z score is -0.24.

For the compound `C[C@H](Nc1nc2nonc2n2nnnc12)c1ccccc1`, the “% Inhibition” value is listed as 27% and the Z score is given as -3.54.

`Cc1ccc(Cl)cc1NS(=O)(=O)c1cc(-c2nc(C)c(C)s2)cs1`: the “% Inhibition” value is -15% and the Z score was determined as 2.11.

`Cc1ccc(-c2n[nH]c(NC(=O)Cc3ccc(C)c(O)c3)c2C)o1`: the “% Inhibition” value is recorded as -2% and the Z score amounted to 0.22.

In the case of `CC(C)S(=O)(=O)N1CC(Oc2ccc(-c3noc(-c4cccnc4)n3)cc2)C1`, the “% Inhibition” value is -16% and the Z score is 3.04.

Regarding `O=C(Nc1ccccc1)N1C[C@@H]2COCCN2C2(C1)CN(C(=O)c1ccc(C(F)(F)F)cc1)C2`, the “% Inhibition” value came out at 8% and the Z score is -1.08.

Turning to `CC(C)CCC(=O)Nc1ncccc1O`, the “% Inhibition” value is listed as -11% and the Z score was 1.18.

Consider `CCc1cnc(CNC(=O)Nc2cccc3oc(C)nc23)o1`, for which the “% Inhibition” value is reported as -1% and the Z score came to 0.05.

`Cc1ccc(NC(=O)Nc2snnc2C(=O)Nc2cc(Cl)ccc2O)cc1`: the “% Inhibition” value came to 3% and the Z score was -0.37.

As to `CCCc1nc(C)c(CNc2cccc(C(=O)NC)c2C)o1`, the “% Inhibition” value is -8% and the Z score amounted to 1.49.

Consider `Cc1cnc(C)c(N2CC[C@H]3[C@H](CCC(=O)N3CCc3c[nH]cn3)C2)n1`, for which the “% Inhibition” value is on record as -3% and the Z score is recorded as 0.55.

On to `CCc1cc(N2CCC(N3C[C@H]4CCN(C)[C@H]4C3)CC2)nc(N2CCCC2)n1`, for which the “% Inhibition” value was determined as 6% and the Z score is recorded as -0.65.

For `CC[C@@H](C(=O)NCCCN1CCCC1)n1nc(C)c2nn(-c3ccccc3)c(C)c2c1=O`, the “% Inhibition” value is listed as -2% and the Z score is reported as 0.23.

On to `C[C@@H](C1CCCCC1)N(C)Cc1ncnn1CCF`, for which the “% Inhibition” value is -7% and the Z score is 1.19.

Consider `COc1cccc(CN[C@H]2[C@H](O)[C@@H](n3cc(-c4ccccc4)cn3)[C@@H]3OC[C@H]2O3)c1`, for which the “% Inhibition” value is listed as -6% and the Z score is 0.71.

For `CC[C@H](NC(=O)c1cc[nH]c1C1CC1)C1CCOCC1`, the “% Inhibition” value is listed as -8% and the Z score turned out to be 0.82.

In the case of `CCOc1cc(CNC2CCN(C(C)=O)CC2)ccc1OCc1c(F)cccc1Cl`, the “% Inhibition” value came out at 38% and the Z score is -4.95.

Regarding `CCc1n[nH]c2c1CN(Cc1cccc(OC)c1O[C@@H](C)C(=O)O)CC2`, the “% Inhibition” value is listed as -17% and the Z score is 2.21.

As for `O=C(c1ccc2c(c1)n(CC1CC1)c(=O)n2C1CCCCC1)N1CCNCC1`, the “% Inhibition” value is -4% and the Z score turned out to be 0.35.

Regarding `COC1CCCCC1OC(=O)c1ccc(C(N)=O)cc1` (stereo unspecified), the “% Inhibition” value is given as -14% and the Z score was 1.89.

For `CC(C)c1nn(C)c(Cl)c1C(=O)N[C@@H](C)C1CCCC1`, the “% Inhibition” value is -5% and the Z score turned out to be 0.67.

Turning to `COc1ccc(-c2cnc3n2CCCC3)cc1`, the “% Inhibition” value is recorded as -23% and the Z score came to 2.75.

Take `O=C1c2ccccc2C(=O)N1c1ccc(S(=O)(=O)N2CCN(c3ccc(Cl)cc3)CC2)cc1`: the “% Inhibition” value is 1% and the Z score was -0.22.

Consider `O=c1cnccn1Cc1ccc(F)cc1F`, for which the “% Inhibition” value is reported as -1% and the Z score was determined as 0.16.

Turning to `Brc1cnn(Cc2nccn2Cc2ccccc2)c1`, the “% Inhibition” value was -1% and the Z score is 0.25.

With `O=C(Cc1ccccn1)NCCN1CCCC[C@@H]1CO`, the “% Inhibition” value is -11% and the Z score is given as 1.48.

In the case of `O=C(Nc1ccc(S(=O)(=O)N2CCOCC2)cc1)c1cc2c(s1)CCCC2`, the “% Inhibition” value was determined as 4% and the Z score is -0.49.

In the case of `Cc1ccc(CN2c3ccc(F)cc3OC[C@@H]2CC(=O)N2CCCC2)cc1`, the “% Inhibition” value was -6% and the Z score is 0.87.
